# PubChem BioAssay AID686979 (National Center for Advancing Translational Sciences (NCATS), 2013)
# Hit rate of the full screen: of about 420,000 compounds, about 50,000 (12%) were called active. The shares of active, inactive and inconclusive entries below differ from those in the screen. Calls follow the shape of the dose curve; as a rule, active = well fitted inhibition curve with a large enough effect; inconclusive = small, poorly fitted or top-dose-only effect; inactive = flat fitted curve, though single readings scatter. Potencies of inconclusive entries are left out as doubtful fits.
# Test: qHTS for Inhibitors of human tyrosyl-DNA phosphodiesterase 1 (TDP1): qHTS in cells in presence of CPT; also: nearly all actives have a fitted effect of over 55% in size
# Conditions: chicken DT40 Tdp1-/-;hTDP1 cells + 20 nM CPT, ATP luminescence, 48 h; activity change, negative = growth inhibition: at 46.2 µM (top of the series) unless noted
# Method in brief: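 Cell growth measured by CellTiter-Glo luminescence after a minimum 48 h, 37 C compound exposure with 20 nM CPT in Tdp1-knockout DT40 cells stably expressing hTDP1, seeded 400/well; qHTS titration format.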
# % is scaled to controls: 0 for no effect and ±100 for the full control effect; potency is read from the fitted curve at half-maximal effect; tags tell the direction and shape of the fitted curve.
Compound,Potency,"activity change, negative = growth inhibition"
CN(C)c1cccc(C(=O)NNC(=S)NC2CC3CCC2C3)c1 (stereo unspecified),"inconclusive [inhibitor, single point]",
CCOC(=O)CN(C(=O)COc1nc(C)cc(C)c1C#N)c1ccc(Cl)cc1,"inconclusive [inhibitor, single point]",
Clc1ccc2nc(-c3ccccc3)c(Cc3ccccc3)n2c1,"inconclusive [inhibitor, single point]",
Cc1ccnc2nc(C(=O)OCC(=O)c3ccc(Cl)cc3)nn12,,inactive: 12.3%
Cc1c(Cl)cccc1NC(=S)NCCc1ccc(Cl)cc1,"inconclusive [inhibitor, single point]",
CC(C)c1nnc(NC(=O)CCC(=O)N2CCN(C3c4ccccc4-c4ccccc43)CC2)s1,,inactive: 0.667%
O=C(Nc1ccc(Cl)c(Cl)c1)c1cc(S(=O)(=O)N2CCN(c3cccc(Cl)c3)CC2)ccc1F,"inconclusive [inhibitor, single point]",
CCn1c(=O)cc(OCC(=O)Nc2ccc(C)cn2)c2ccccc21,"inconclusive [inhibitor, single point]",
COc1ccc(OC(F)(F)F)cc1CC1(C)C(=O)Nc2ccc(-c3ccsc3)cc21 (stereo unspecified),"inconclusive [inhibitor, single point]",
CC(C)(C)OC(=O)N1CSC[C@H]1C(=O)NC[C@H](CC(=O)O)c1ccc(Cl)cc1,,inactive: 0.973%
Cc1cc(Br)ccc1NC(=O)c1coc(=O)c2ccccc12,,inactive: -26.8%
CCCc1nnc(SCC(=O)N2CCOCC2)n1C,,inactive: 9.3%
O=C(Cc1ccc(Nc2nc3ccc(Br)cc3[nH]2)cc1)NCCc1cccs1,"inconclusive [inhibitor, single point]",
COC(=O)c1ccccc1NC(=O)CCc1ccccc1,,inactive: -5.98%
O=C(Nc1c(C(=O)N2CCN(c3ccccn3)CC2)oc2ccccc12)c1ccc([N+](=O)[O-])cc1,active: 23.1 µM,
CCCC[C@@H]1CNCCN1CCc1cccc2ccccc12,active: 23.1 µM,
CC1Cc2ccccc2N1C(=O)CSc1nc(-c2ccco2)cc(C(F)(F)F)n1 (stereo unspecified),,inactive: -5.01%
CC(C)(C)C(=O)NC(NC(=S)Nc1ccc(S(N)(=O)=O)cc1)C(Cl)(Cl)Cl (stereo unspecified),,inactive: -7.12%
COc1ccc([C@H]2CC(=O)C=C(c3ccc(OC)c(OC)c3)C2)cc1,active: 11.6 µM,
CC(C)(C)Nc1nc(Cl)nc(Nc2ccccc2)n1,"inconclusive [inhibitor, partial curve]",
Cn1c(=O)c2c(nc(SCC(=O)NCc3ccc4c(c3)OCO4)n2Cc2ccc(F)cc2)n(C)c1=O,"inconclusive [inhibitor, single point]",
COC(=O)c1cccc(CSc2nnc(-c3ccco3)n2-c2ccccc2)c1,"inconclusive [inhibitor, single point]",
Cc1ccc(-c2nc3cnccn3c2Nc2ccccc2)o1,active: 20.6 µM,
O=C(NCCCCc1ccccc1)c1nn(-c2ccccc2F)nc1CO,"inconclusive [inhibitor, single point]",

Compound,Potency,"activity change, negative = growth inhibition"
Cc1cc(C(=O)COC(=O)Cc2n[nH]c(=O)c3ccccc23)c(C)n1-c1ccc2c(c1)OCO2,active: 18.4 µM,
Cc1nn(CCC(=O)NCc2cccc(Br)c2)c(=O)c2nn(-c3ccccc3)c(C)c12,"inconclusive [inhibitor, single point]",
O=C(c1ccc(CS(=O)c2ccccc2Cl)o1)N1CCN(c2cccc(C(F)(F)F)c2)CC1 (stereo unspecified),active: 0.651 µM,
COc1ccc(CN2CCN(C(=O)c3ccco3)CC2)cc1OCc1ccccc1,"inconclusive [inhibitor, single point]",
CC(C)(C)NCC(O)COCc1ccc(Cl)cc1 (stereo unspecified),"inconclusive [inhibitor, single point]",
CC(C)NC(=O)Cn1ccc2cc(S(=O)(=O)N3CCCCCC3)ccc21,"inconclusive [inhibitor, partial curve]",
COc1ccc(CCNC(=O)C2CCN(c3nccc(C)n3)CC2)cc1,,inactive: -0.567%
CCCOc1ccc(C(=O)NCC(c2ccc(OC)cc2)N2CCCCC2)cc1 (stereo unspecified),"inconclusive [inhibitor, single point]",
O=C1/C(=C/c2cccs2)SC(=S)N1CCCC(=O)N(CCO)c1ccccc1,"inconclusive [inhibitor, single point]",
O=C(Cn1nnc2ccccc21)c1ccc([N+](=O)[O-])cc1,"inconclusive [inhibitor, partial curve]",
Cc1ccc(NC(=O)NC(=O)COC(=O)c2ccc(O)cc2O)c(C)c1,,inconclusive: -31.4% [inhibitor]
O=C(CCCCC(=O)OCC1COCO1)OCC1COCO1 (stereo unspecified),,inactive: -8.75%
CC(=O)NC1C2CN3CCN(C2)CC1(Cc1ccccc1)C3 (stereo unspecified),,inactive: -4.9%
COc1ccccc1CCNC(=O)C(=O)c1cn(CC(=O)N2CCOCC2)c2ccccc12,,inconclusive: -33.5% [inhibitor]
CCn1cc(C(=O)NCCCN2CCCC2)c(=O)c2cc(S(=O)(=O)N3CCc4ccccc4C3)ccc21,"inconclusive [inhibitor, partial curve]",
CC(=O)Nc1cccc(-c2csc(Nc3cc(C)ccn3)n2)c1,"inconclusive [inhibitor, single point]",
Cc1cccc(OCCCSc2nc(-c3ccc(C(C)(C)C)cc3)nc3cc(=O)[nH]n23)c1C,"inconclusive [inhibitor, single point]",
CC(=O)C1=CCC(c2ccccc2)N(Cc2ccccc2)C1 (stereo unspecified),"inconclusive [inhibitor, single point]",
O=S(=O)(c1ccccc1)c1nc(-c2cccs2)oc1N1CCCCC1,active: 29.1 µM,
Cc1ccc2c(c1)C(O)(CC(=O)/C=C/C=C/c1ccccc1)C(=O)N2 (stereo unspecified),"inconclusive [inhibitor, single point]",
O=C(Nc1cccnc1Cl)c1cc(-c2ccc(O)cc2)on1,,inactive: 15.7%
CC(NC(=O)c1ccc(CSc2nc3ccncc3n2Cc2ccc(F)cc2)cc1)c1ccccc1 (stereo unspecified),"inconclusive [inhibitor, single point]",
O=C1C2C3C=CC(C3)C2C(=O)N1/N=C/c1cn(Cc2ccc(F)cc2)c2ccccc12 (stereo unspecified),,inactive: -2.84%
Cc1ccc(Nc2nc(NCc3ccccc3)nc3ccsc23)c(C)c1,active: 23.1 µM,

Compound,Potency,"activity change, negative = growth inhibition"
Cc1ccc(C)c(OCC(=O)Nc2nonc2NC(=O)COc2cc(C)ccc2C)c1,"inconclusive [inhibitor, partial curve, poor fit]",
Cc1cc(C)cc(NC(=O)Nc2ccc(NC(=O)c3ccccc3O)cc2)c1,"inconclusive [inhibitor, single point]",
CO[C@@H]1CN(C)C(=O)c2ccc(NC(=O)C3CCC3)cc2OC[C@H](C)N(CC2CCCCC2)C[C@H]1C,"inconclusive [inhibitor, single point]",
Cc1cc(Nc2cccc(F)c2)nc(-c2ccccc2O)n1,"inconclusive [inhibitor, single point]",
Cc1cccc(OCC(=O)OCC(=O)NCC2CCCO2)c1C (stereo unspecified),,inactive: 1.29%
CCN(CC)S(=O)(=O)c1ccc(NN=C2CCN(C(C)C)CC2)c([N+](=O)[O-])c1,"inconclusive [inhibitor, single point]",
Cc1ccccc1S(=O)(=O)Nc1ncnc2scc(-c3ccccc3)c12,,inactive: 5.91%
COc1ccc([N+](=O)[O-])cc1NC(=O)c1ccc(-n2nc(C)cc2C)cc1,,inactive: 8.45%
Cc1cccc(C)c1OCC(=O)NNC(=O)CCCn1c(=O)oc2ccccc21,,inactive: 5.18%
O=c1ccc2cc(S(=O)(=O)Nc3ccccc3F)ccc2o1,,inactive: -5.21%
Cc1cc(C)n(-c2ncnc3c2oc2ccccc23)n1,"inconclusive [inhibitor, single point]",
CCOC(=O)c1c(NC(=O)CSc2nncs2)sc(C)c1-c1ccccc1,"inconclusive [inhibitor, single point]",
O=[N+]([O-])C(=C1NCCN1)C(Cl)=C(Cl)Cl,"inconclusive [inhibitor, single point]",
CC(C)COc1cccc(C(=O)N(CC(=O)Nc2ccccc2C(F)(F)F)Cc2ccco2)c1,"inconclusive [inhibitor, single point]",
CCN(CC(=O)NCc1cccs1)C(=O)c1ccc(S(=O)(=O)N(C)c2ccccc2)cc1,,inconclusive: -32% [inhibitor]
Cc1ccc(S(=O)(=O)c2cc3c(=O)n4ccccc4nc3n(CCc3ccccc3)c2=N)cc1,"inconclusive [inhibitor, single point]",
CCOc1ccc(NC(=O)Cn2sc3nc(C)cc(C)c3c2=O)cc1,active: 2.06 µM,
O=C(Nc1cc2c3c(c1)CC(=O)N3CCC2)c1ccccc1C(F)(F)F,,inactive: -16.1%
CCN(CC)CC(O)COCCC12CC3CC(CC(C3)C1)C2 (stereo unspecified),"inconclusive [inhibitor, single point]",
CC1(C)OC2CC3C4CC(F)C5=CC(=O)C=C[C@@]5(C)[C@@]4(F)C(O)C[C@@]3(C)[C@]2(C(=O)CO)O1 (stereo partly specified),,inactive: -13.1%
COc1ccc(-n2c(=O)[nH]cc(C(=O)Nc3ccc4c(c3)OCCO4)c2=O)cc1OC,,inactive: -16.4%
O=C(CSC1=NS(=O)(=O)c2ccccc21)Nc1ccccc1,active: 1.84 µM,
CCn1cc([N+](=O)[O-])c(C(=O)N2N=C(c3ccc(OC)cc3OC)CC2c2ccccc2O)n1 (stereo unspecified),"inconclusive [inhibitor, single point]",
